# From the supplement of paper PMC8728848
# The other results are listed elsewhere or left out.
# B1: L-Selectin (Mus musculus), P18337 (protein)
# chain: MVFPWRCEGTYWGSRNILKLWVWTLLCCDFLIHHGTHCWTYHYSEKPMNWENARKFCKQNYTDLVAIQNKREIEYLENTLPKSPYYYWIGIRKIGKMWTWVGTNKTLTKEAENWGAGEPNNKKSKEDCVEIYIKRERDSGKWNDDACHKRKAALCYTASCQPGSCNGRGECVETINNHTCICDAGYYGPQCQYVVQCEPLEAPELGTMDCIHPLGNFSFQSKCAFNCSEGRELLGTAETQCGASGNWSSPEPICQVVQCEPLEAPELGTMDCIHPLGNFSFQSKCAFNCSEGRELLGTAETQCGASGNWSSPEPICQETNRSFSKIKEGDYNPLFIPVAVMVTAFSGLAFLIWLARRLKKGKKSQERMDDPY
# Columns and labels:
# Assay in all cases: glycan array binding signal (z-score within array); higher = stronger binding
# Conditions in all cases: glycan notation: IUPAC condensed, linker removed
# Gal(a1-6)Glc = target: Gal(a1-6)Glc
# How it was run: (§1)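 Arrays were curated from the Consortium for Functional Glycomics database, 3228 in total, and kept only where the protein sequence was available. Binding is expressed as a within-array Z-score. This score was averaged across arrays of the same protein sequence at different concentrations or buffers and across linkers, and negative values can be read as non-binding.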
# Gal(b1-2)Gal = target: Gal(b1-2)Gal
# How it was run: as §1
# Gal(b1-3)Gal = target: Gal(b1-3)Gal
# How it was run: as §1
# Gal(b1-3)Gal(b1-4)GlcNAc = target: Gal(b1-3)Gal(b1-4)GlcNAc
# How it was run: as §1
# Gal(b1-3)GalNAc = target: Gal(b1-3)GalNAc
# How it was run: as §1
# [1] = target: Gal(b1-3)GalNAc(b1-3)Gal(a1-4)Gal(b1-4)Glc
# How it was run: as §1
# [2] = target: Gal(b1-3)GalNAc(b1-4)Gal(b1-4)Glc
# How it was run: as §1
# [3] = target: Gal(b1-3)GalNAc(b1-4)[Neu5Ac(a2-3)]Gal(b1-4)Glc
# How it was run: as §1
# Gal(b1-3)GlcNAc = target: Gal(b1-3)GlcNAc
# How it was run: as §1
# [4] = target: Gal(b1-3)GlcNAc(b1-2)Man(a1-3)[Gal(b1-3)GlcNAc(b1-2)Man(a1-6)]Man(b1-4)GlcNAc(b1-4)GlcNAc
# How it was run: as §1
# [5] = target: Gal(b1-3)GlcNAc(b1-3)Gal(b1-3)GlcNAc
# How it was run: as §1
# [6] = target: Gal(b1-3)GlcNAc(b1-3)Gal(b1-4)Glc
# How it was run: as §1
# [7] = target: Gal(b1-3)GlcNAc(b1-3)Gal(b1-4)GlcNAc
# How it was run: as §1
# [8] = target: Gal(b1-3)[Fuc(a1-4)]GlcNAc
# How it was run: as §1
# [9] = target: Gal(b1-3)[Fuc(a1-4)]GlcNAc(b1-3)Gal(b1-3)[Fuc(a1-4)]GlcNAc
# How it was run: as §1
# [10] = target: Gal(b1-3)[Fuc(a1-4)]GlcNAc(b1-3)Gal(b1-4)GlcNAc
# How it was run: as §1
# [11] = target: Gal(b1-3)[Fuc(a1-4)]GlcNAc(b1-3)Gal(b1-4)[Fuc(a1-3)]GlcNAc
# How it was run: as §1
# [12] = target: Gal(b1-3)[GlcNAc(b1-6)]GalNAc
# How it was run: as §1
# [13] = target: Gal(b1-3)[Neu5Ac(a2-6)]GalNAc
# How it was run: as §1
# [14] = target: Gal(b1-3)[Neu5Ac(a2-6)]GlcNAc(b1-6)Gal(b1-4)Glc
# How it was run: as §1
# [15] = target: Gal(b1-3)[Neu5Ac(b2-6)]GalNAc
# How it was run: as §1
# [16] = target: Gal(b1-4)GalNAc(a1-3)[Fuc(a1-2)]Gal(b1-4)GlcNAc
# How it was run: as §1
# [17] = target: Gal(b1-4)GalNAc(b1-3)[Fuc(a1-2)]Gal(b1-4)GlcNAc
# How it was run: as §1
# Gal(b1-4)Glc = target: Gal(b1-4)Glc
# How it was run: as §1
# Gal(b1-4)Glc6S = target: Gal(b1-4)Glc6S
# How it was run: as §1
# Gal(b1-4)GlcNAc = target: Gal(b1-4)GlcNAc
# How it was run: as §1
# [18] = target: Gal(b1-4)GlcNAc(a1-6)Gal(b1-4)GlcNAc
# How it was run: as §1
# [19] = target: Gal(b1-4)GlcNAc(b1-2)Man(a1-3)[Gal(b1-4)GlcNAc(b1-2)Man(a1-6)]Man(b1-4)GlcNAc(b1-4)GlcNAc
# How it was run: as §1
# [20] = target: Gal(b1-4)GlcNAc(b1-3)Gal(b1-3)GlcNAc
# How it was run: as §1
# [21] = target: Gal(b1-4)GlcNAc(b1-3)Gal(b1-4)Glc
# How it was run: as §1
# [22] = target: Gal(b1-4)GlcNAc(b1-3)Gal(b1-4)GlcNAc
# How it was run: as §1
# [23] = target: Gal(b1-4)GlcNAc(b1-3)Gal(b1-4)GlcNAc(b1-3)Gal(b1-4)GlcNAc
# How it was run: as §1
# [24] = target: Gal(b1-4)GlcNAc(b1-3)Gal(b1-4)[Fuc(a1-3)]GlcNAc(b1-3)Gal(b1-4)[Fuc(a1-3)]GlcNAc
# How it was run: as §1
# [25] = target: Gal(b1-4)GlcNAc(b1-3)GalNAc
# How it was run: as §1
# [26] = target: Gal(b1-4)GlcNAc(b1-3)[Gal(b1-4)GlcNAc(b1-6)]Gal(b1-4)GlcNAc
# How it was run: as §1
# [27] = target: Gal(b1-4)GlcNAc(b1-3)[Gal(b1-4)GlcNAc(b1-6)]GalNAc
# How it was run: as §1
# [28] = target: Gal(b1-4)GlcNAc(b1-3)[GlcNAc(b1-6)]Gal(b1-4)GlcNAc
# How it was run: as §1
# [29] = target: Gal(b1-4)GlcNAc(b1-6)Gal(b1-4)GlcNAc
# How it was run: as §1
# [30] = target: Gal(b1-4)GlcNAc(b1-6)Gal(b1-4)GlcNAc(b1-6)GalNAc
# How it was run: as §1
# [31] = target: Gal(b1-4)GlcNAc(b1-6)GalNAc
# How it was run: as §1
# [32] = target: Gal(b1-4)GlcNAc(b1-6)[Gal(b1-3)]GalNAc
# How it was run: as §1
# Gal3S(b1-3)GalNAc = target: Gal3S(b1-3)GalNAc
# How it was run: as §1
# Gal3S(b1-3)GlcNAc = target: Gal3S(b1-3)GlcNAc
# How it was run: as §1
# [33] = target: Gal3S(b1-3)[Fuc(a1-4)]GlcNAc
# How it was run: as §1
# Gal3S(b1-4)Glc = target: Gal3S(b1-4)Glc
# How it was run: as §1
# Gal3S(b1-4)Glc6S = target: Gal3S(b1-4)Glc6S
# How it was run: as §1
# Gal3S(b1-4)GlcNAc = target: Gal3S(b1-4)GlcNAc
# How it was run: as §1
# Gal3S(b1-4)GlcNAc6S = target: Gal3S(b1-4)GlcNAc6S
# How it was run: as §1
# [34] = target: Gal3S(b1-4)[Fuc(a1-3)]Glc
# How it was run: as §1
# Gal3S4S(b1-4)GlcNAc = target: Gal3S4S(b1-4)GlcNAc
# How it was run: as §1
# Gal3S6S(b1-4)GlcNAc = target: Gal3S6S(b1-4)GlcNAc
# How it was run: as §1
# Gal3S6S(b1-4)GlcNAc6S = target: Gal3S6S(b1-4)GlcNAc6S
# How it was run: as §1
# Gal4S(b1-4)GlcNAc = target: Gal4S(b1-4)GlcNAc
# How it was run: as §1
# Gal4S6S(b1-4)GlcNAc = target: Gal4S6S(b1-4)GlcNAc
# How it was run: as §1
# Gal6S(b1-4)Glc = target: Gal6S(b1-4)Glc
# How it was run: as §1
# Gal6S(b1-4)Glc6S = target: Gal6S(b1-4)Glc6S
# How it was run: as §1
# Gal6S(b1-4)GlcNAc = target: Gal6S(b1-4)GlcNAc
# How it was run: as §1
# Gal6S(b1-4)GlcNAc6S = target: Gal6S(b1-4)GlcNAc6S
# How it was run: as §1
# GalNAc(a1-3)Gal = target: GalNAc(a1-3)Gal
# How it was run: as §1
# GalNAc(a1-3)GalNAc = target: GalNAc(a1-3)GalNAc
# How it was run: as §1
binder,measurement,setting,value
B1,glycan array binding signal (z-score),Gal(a1-6)Glc,0.345
same,glycan array binding signal (z-score),Gal(b1-2)Gal,0.706
same,glycan array binding signal (z-score),Gal(b1-3)Gal,-0.366
same,glycan array binding signal (z-score),Gal(b1-3)Gal(b1-4)GlcNAc,-0.351
same,glycan array binding signal (z-score),Gal(b1-3)GalNAc,-0.396
same,glycan array binding signal (z-score),[1],0.112
same,glycan array binding signal (z-score),[2],-0.089
same,glycan array binding signal (z-score),[3],-0.174
same,glycan array binding signal (z-score),Gal(b1-3)GlcNAc,-0.359
same,glycan array binding signal (z-score),[4],-0.539
same,glycan array binding signal (z-score),[5],-0.607
same,glycan array binding signal (z-score),[6],-0.182
same,glycan array binding signal (z-score),[7],-0.599
same,glycan array binding signal (z-score),[8],-0.418
same,glycan array binding signal (z-score),[9],-0.033
same,glycan array binding signal (z-score),[10],-0.212
same,glycan array binding signal (z-score),[11],-0.568
same,glycan array binding signal (z-score),[12],-0.235
same,glycan array binding signal (z-score),[13],-0.079
same,glycan array binding signal (z-score),[14],-0.491
same,glycan array binding signal (z-score),[15],-0.348
same,glycan array binding signal (z-score),[16],-0.466
same,glycan array binding signal (z-score),[17],-0.118
same,glycan array binding signal (z-score),Gal(b1-4)Glc,-0.364
same,glycan array binding signal (z-score),Gal(b1-4)Glc6S,0.961
same,glycan array binding signal (z-score),Gal(b1-4)GlcNAc,-0.264
same,glycan array binding signal (z-score),[18],-0.053
same,glycan array binding signal (z-score),[19],-0.548
same,glycan array binding signal (z-score),[20],0.173
same,glycan array binding signal (z-score),[21],-0.243
same,glycan array binding signal (z-score),[22],-0.225
same,glycan array binding signal (z-score),[23],-0.574
same,glycan array binding signal (z-score),[24],0.011
same,glycan array binding signal (z-score),[25],-0.33
same,glycan array binding signal (z-score),[26],0.228
same,glycan array binding signal (z-score),[27],-0.393
same,glycan array binding signal (z-score),[28],-0.197
same,glycan array binding signal (z-score),[29],0.199
same,glycan array binding signal (z-score),[30],-0.369
same,glycan array binding signal (z-score),[31],-0.227
same,glycan array binding signal (z-score),[32],-0.389
same,glycan array binding signal (z-score),Gal3S(b1-3)GalNAc,-0.095
same,glycan array binding signal (z-score),Gal3S(b1-3)GlcNAc,-0.144
same,glycan array binding signal (z-score),[33],3.61
same,glycan array binding signal (z-score),Gal3S(b1-4)Glc,0.558
same,glycan array binding signal (z-score),Gal3S(b1-4)Glc6S,1.41
same,glycan array binding signal (z-score),Gal3S(b1-4)GlcNAc,-0.247
same,glycan array binding signal (z-score),Gal3S(b1-4)GlcNAc6S,0.952
same,glycan array binding signal (z-score),[34],0.329
same,glycan array binding signal (z-score),Gal3S4S(b1-4)GlcNAc,1.15
same,glycan array binding signal (z-score),Gal3S6S(b1-4)GlcNAc,1.29
same,glycan array binding signal (z-score),Gal3S6S(b1-4)GlcNAc6S,4.38
same,glycan array binding signal (z-score),Gal4S(b1-4)GlcNAc,0.028
same,glycan array binding signal (z-score),Gal4S6S(b1-4)GlcNAc,1.26
same,glycan array binding signal (z-score),Gal6S(b1-4)Glc,-0.052
same,glycan array binding signal (z-score),Gal6S(b1-4)Glc6S,1.58
same,glycan array binding signal (z-score),Gal6S(b1-4)GlcNAc,0.416
same,glycan array binding signal (z-score),Gal6S(b1-4)GlcNAc6S,1.56
same,glycan array binding signal (z-score),GalNAc(a1-3)Gal,-0.212
same,glycan array binding signal (z-score),GalNAc(a1-3)GalNAc,-0.238
